Assay results from the supplement of paper PMC7826260.
Some of the results follow. Viral Rep nickase domains cut single-stranded DNA in vitro (3 µM enzyme, 1 h, 37 °C); shown is the middle of each 90-letter strand. Uncut reads are compared with the no-enzyme pool on a log2 scale; the lower, the more was cut; hits are not called. Shares of all reads are compared; uncut strands gain when others are lost, and binding without cutting may add a little.

How the values were obtained:
Experiment in all cases: uncleaved DNA left, log2 of reads against the no-enzyme library (log2 ratio); higher = less cleavage (more negative = more Rep cleavage of the k-mer); sequences stand for … in CTCGTCCG…ACCGGAGA
[1] = test system: T1, Rep nickase domain of Muscovy duck circovirus
T1 sequence (Rep 1-111, printed without the tag): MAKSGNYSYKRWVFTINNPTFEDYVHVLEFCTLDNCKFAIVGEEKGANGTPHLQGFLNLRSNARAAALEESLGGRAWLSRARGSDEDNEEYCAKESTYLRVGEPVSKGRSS
Experimental: (§1)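 A pool of 90-nt single-stranded DNAs with seven random bases just before the constant AC of the nick site (name = the seven bases) was cut by 3 µM recombinant His6-SUMO-tagged Rep nickase domain (300 nM DNA, 50 mM HEPES pH 8.0, 50 mM NaCl, 1 mM MnCl2, 1 h, 37 °C, three replicates). Uncut DNA was amplified and sequenced.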

[2] = test system: T2, Rep nickase domain of banana bunchy top virus
T2 sequence (Rep 1-94, printed without the tag): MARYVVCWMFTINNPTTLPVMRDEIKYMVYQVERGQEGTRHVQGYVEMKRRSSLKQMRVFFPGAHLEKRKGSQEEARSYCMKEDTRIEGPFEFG
Experimental: as §1

[3] = test system: T3, Rep nickase domain of cabbage leaf curl virus
T3 sequence (Rep 1-116, printed without the tag): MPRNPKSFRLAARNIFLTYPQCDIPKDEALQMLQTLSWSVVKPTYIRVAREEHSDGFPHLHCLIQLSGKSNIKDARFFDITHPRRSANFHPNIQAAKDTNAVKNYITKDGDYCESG
Experimental: as §1

[4] = test system: T4, Rep nickase domain of chickpea chlorotic dwarf virus
T4 sequence (Rep 1-124, printed without the tag): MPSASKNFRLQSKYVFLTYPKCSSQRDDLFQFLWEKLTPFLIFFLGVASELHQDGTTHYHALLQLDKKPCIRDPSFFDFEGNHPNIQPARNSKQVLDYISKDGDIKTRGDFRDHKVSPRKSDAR
Experimental: as §1

[5] = test system: T5, Rep nickase domain of faba bean necrotic yellows virus
T5 sequence (Rep 1-98, printed without the tag): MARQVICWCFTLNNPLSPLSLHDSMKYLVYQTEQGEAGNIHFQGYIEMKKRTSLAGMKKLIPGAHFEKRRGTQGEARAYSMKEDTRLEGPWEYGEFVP
Experimental: as §1

[6] = test system: T6, Rep nickase domain of maize striate mosaic virus
T6 sequence (Rep 1-117, printed without the tag): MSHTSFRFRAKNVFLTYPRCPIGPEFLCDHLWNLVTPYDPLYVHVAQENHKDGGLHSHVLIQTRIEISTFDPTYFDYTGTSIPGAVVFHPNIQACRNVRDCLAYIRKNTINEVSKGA
Experimental: as §1

[7] = test system: T7, Rep nickase domain of porcine circovirus 2
T7 sequence (Rep 2-116, printed without the tag): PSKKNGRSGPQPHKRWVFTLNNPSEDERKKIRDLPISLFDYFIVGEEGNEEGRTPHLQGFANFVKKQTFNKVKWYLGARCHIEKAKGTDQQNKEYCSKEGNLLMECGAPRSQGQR
Experimental: as §1

[8] = test system: T8, Rep nickase domain of tomato yellow leaf curl virus
T8 sequence (Rep 1-136, printed without the tag): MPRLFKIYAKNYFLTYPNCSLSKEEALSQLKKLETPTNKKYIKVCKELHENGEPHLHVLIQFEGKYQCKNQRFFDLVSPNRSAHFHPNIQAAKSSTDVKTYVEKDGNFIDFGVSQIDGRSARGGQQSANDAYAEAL
Experimental: as §1

[9] = test system: T9, Rep nickase domain of wheat dwarf virus
T9 sequence (Rep 1-137, printed without the tag): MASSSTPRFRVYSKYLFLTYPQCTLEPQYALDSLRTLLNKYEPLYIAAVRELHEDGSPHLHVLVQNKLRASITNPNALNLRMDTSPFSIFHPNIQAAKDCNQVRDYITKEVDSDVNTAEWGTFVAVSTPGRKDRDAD
Experimental: as §1

Sequence | uncleaved DNA left (log2) [1] | uncleaved DNA left (log2) [2] | uncleaved DNA left (log2) [3] | uncleaved DNA left (log2) [4] | uncleaved DNA left (log2) [5] | uncleaved DNA left (log2) [6] | uncleaved DNA left (log2) [7] | uncleaved DNA left (log2) [8] | uncleaved DNA left (log2) [9]
TGTACCA | 0.0746 | 0.158 | 0.272 | -0.298 | 0.158 | 0.664 | -0.299 | 0.13 | 0.131
GCCCAGA | 0.175 | 0.169 | 0.299 | 0.623 | 0.158 | 0.203 | 0.253 | 0.097 | 0.128
AGGCTTA | 0.0228 | -0.0176 | 0.0641 | -0.135 | 0.12 | 0.527 | -0.256 | -0.0501 | -0.0474
GACGCAC | -0.0544 | 0.00184 | -0.152 | 0.347 | -0.108 | -0.0845 | 0.0698 | -0.0799 | -0.0296
CCTGCGG | 0.039 | 0.0564 | 0.508 | 1.36 | -0.0408 | 1.57 | 0.21 | -0.128 | 0.051
TGTTTCC | -0.0214 | -0.0606 | 0.308 | 0.374 | -0.044 | 1.03 | -0.00281 | 0.0406 | -0.108
GGAAAGT | 0.106 | 0.0778 | 0.843 | 1.79 | 0.0123 | 2.06 | 0.21 | 0.057 | 0.235
AGGATGG | 0.107 | -0.144 | -0.07 | 0.122 | -0.0879 | -0.28 | 0.0951 | -0.141 | -0.0778
AGAGGTA | 0.127 | 0.178 | 0.378 | 0.874 | 0.0228 | 1.15 | 0.0298 | 0.0592 | 0.0809
AAAGCGA | 0.0321 | -0.0234 | -0.673 | -0.175 | -0.0859 | -0.95 | 0.159 | -0.0471 | -0.109
CCATGCA | -0.0642 | -0.0532 | -0.75 | -0.626 | 0.0626 | -1.26 | 0.0687 | 0.0405 | -0.255
GCCTCAT | -0.0975 | 0.0209 | 0.115 | 0.461 | -0.0433 | 0.66 | -0.147 | -0.112 | 0.101
TTCGAGG | 0.0731 | -0.021 | 0.508 | 1.26 | 0.0661 | 1.75 | 0.00779 | -0.00804 | 0.0718
TCGTTGA | 0.137 | -0.0469 | -0.113 | -0.349 | 0.0418 | -0.73 | 0.0619 | 0.0297 | 0.0442
AGCCGGC | -0.182 | -0.137 | -0.136 | 0.127 | -0.0501 | -0.22 | -0.0619 | -0.115 | -0.0458
